From the supplement of paper PMC9446081 come the findings set out here.

Structures are written as SMILES. The campaign covered roughly 39,000 compounds. About 220 (0.56%) showed activity. Some of the results follow.
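Note: static incubation at 37 °C against the wild-type strain, values averaged over two biological replicates.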

The experiment has as its system Escherichia coli K-12 BW25113. The experiment can be described thus: relative growth (OD600 normalised to plate interquartile mean) (fraction); higher = less growth inhibition, active = 0.2 or less. The conditions noted are these: 50 µM; LB; incubation time: overnight (16-24 h).
As for `CN1CCN(C(=O)C[C@@H]2CC[C@H]3[C@@H](COC[C@@H](O)CN3C(=O)C3CCCC3)O2)CC1`, the relative growth was inactive: 1.01.
Consider `O=C(C[C@H]1C[C@H]2c3cc(NS(=O)(=O)c4ccc(F)cc4)ccc3O[C@H]2[C@H](CO)O1)NCCc1ccccc1`, for which the relative growth was inactive: 1.02.
`C[C@@H]1CN([C@@H](C)CO)C(=O)c2cc(NC(=O)CCCN(C)C)ccc2O[C@@H]1CN(C)Cc1ccc(Oc2ccccc2)cc1`: the relative growth is inactive: 0.957.
As for `C[C@@H]1CCCCO[C@@H](CN(C)Cc2ccc(C(F)(F)F)cc2)[C@@H](C)CN([C@@H](C)CO)C(=O)c2cc(N(C)C)ccc2O1`, the figure is inactive: 1.05; as for `CCCCCCCCCCCCCCCC[N+](C)(C)Cc1ccccc1.[Cl-]`, active: 0.0933.
Then `C[C@@H]1CN([C@@H](C)CO)C(=O)c2cc(NC(=O)Nc3ccccc3)ccc2O[C@H]1CN(C)C(=O)Nc1ccc(C(F)(F)F)cc1`, with inactive: 0.991.
Turning to `C[C@H](O)C#Cc1cnc2c(c1)C(=O)N([C@@H](C)CO)C[C@@H](C)[C@H](CN(C)Cc1cncnc1)O2`, the relative growth is inactive: 0.996.
Take `C[C@@H]1CN([C@H](C)CO)C(=O)c2cccc(NC(=O)C3CCOCC3)c2O[C@@H]1CN(C)S(=O)(=O)c1cccs1`: the relative growth is inactive: 0.98.
Regarding `C[C@H](CO)N1C[C@H](C)[C@@H](CN(C)Cc2ccc(C(=O)O)cc2)Oc2ccc(NC(=O)Cn3cnnn3)cc2C1=O`, the relative growth is inactive: 0.976.
As for `Cc1ccc(S(=O)(=O)N[C@H]2C=C[C@H](CC(=O)NCCN3CCCCC3)O[C@@H]2CO)cc1`, the figure is inactive: 1.01.
Then `C[C@H](CO)N1C[C@H](C)[C@@H](CN(C)S(=O)(=O)c2ccccc2)Oc2c(NS(=O)(=O)c3cccs3)cccc2C1=O`, with inactive: 0.985; and `C[C@@H]1CCCCO[C@@H](CN(C)S(C)(=O)=O)[C@H](C)CN([C@@H](C)CO)C(=O)c2cc(NS(=O)(=O)c3ccc(F)cc3)ccc2O1`, with inactive: 1.01; and `OC(Cn1cncn1)(Cn1cncn1)c1ccc(F)cc1F`, with inactive: 0.998.
As for `O=C(NCc1nc2ccccc2[nH]1)C1=C[C@@H](c2csc3ccccc23)C[C@@H](OCc2ccc(CO)cc2)O1`, the figure is inactive: 1.01; as for `C[C@H](CO)N1C[C@H](C)[C@@H](CN(C)C(=O)c2ccncc2)OCCCC[C@H](C)Oc2ccc(NC(=O)C3CCCCC3)cc2C1=O`, inactive: 0.998.
For the molecule `CCS(=O)(=O)N1CCC[C@]2(C(=O)NCC3CC3)CN(Cc3cnn(C)c3)C[C@H]2C1`, the relative growth is inactive: 1.02.
For the molecule `C[C@@H](CO)N1C(=O)[C@@H]2[C@H]3C(=O)OCCC=C[C@H]3O[C@]23C=CCN(Cn2nnc4ccccc42)C(=O)[C@@H]13`, the relative growth was inactive: 0.984.
